Experimental data as given in PubChem BioAssay AID1745853 (National Center for Advancing Translational Sciences (NCATS), 2022).
Some of the results follow. Shown are side measurements of this screen, not its main read-out; they come without a call.

Key:
Experiment in all cases: Primary Screen for Target Class Profiling of Small Molecule Inhibitors of Methyltransferases
[1] = molecular target: Glycine N-methyltransferase (Homo sapiens) (UniProt Q14749); settings: purified enzyme, MTase-Glo SAH luminescence; measured here: GNMT inhibition; at 40 µM; stronger effect = lower value
Outline: (§1)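 Each enzyme was assayed with SAM and its substrate. SAH formation detected by MTase-Glo luminescence; single-point 40 uM screen[…].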

[2] = molecular target: Guanidinoacetate N-methyltransferase (Homo sapiens) (UniProt Q14353); settings: purified enzyme, MTase-Glo SAH luminescence; measured here: GAMT inhibition; at 40 µM; stronger effect = lower value
Outline: as §1

[3] = molecular target: Histamine N-methyltransferase (Homo sapiens) (UniProt P50135); settings: purified enzyme, MTase-Glo SAH luminescence; measured here: HNMT inhibition; at 40 µM; stronger effect = lower value
Outline: as §1

[4] = molecular target: Nicotinamide N-methyltransferase (Homo sapiens) (UniProt P40261); settings: purified enzyme, MTase-Glo SAH luminescence; measured here: NNMT inhibition; at 40 µM; stronger effect = lower value
Outline: as §1

[5] = molecular target: Phenylethanolamine N-methyltransferase (Homo sapiens) (UniProt P11086); settings: purified enzyme, MTase-Glo SAH luminescence; measured here: PNMT inhibition; at 40 µM; stronger effect = lower value
Outline: as §1
% is set by controls: 0 for no effect and ±100 for the full control effect.

Row | SMILES | activity change, negative = inhibition [1] | activity change, negative = inhibition [2] | activity change, negative = inhibition [3] | activity change, negative = inhibition [4] | activity change, negative = inhibition [5]
1 | CC(=O)OC1C[C@@]2(C)[C@@H](CC[C@@H](C)[C@]23Cc2c(O)cc4c(c2O3)CNC4=O)C(C)(C)[C@@H]1O (stereo not given in full) | 5.14% | 0.959% | 9.6% | -11.2% | -5.26%
2 | Cc1nn(-c2ccccc2)c(C)c1Cc1nc(C(C)C)no1 | -6.65% | -6.24% | -5.83% | -13.1% | -6.49%
3 | COC(=O)c1cc(OC)c(O[C@@H]2O[C@@H](C)[C@H](O)[C@@H](O)[C@H]2O)c(OC)c1 | 6.59% | 6.23% | 2.43% | -6.91% | 7.01%
4 | CC(C)Cn1c(=O)c2ccc(C(=O)NC3CCCC3)cc2n2c(=O)n(CC(=O)NC3CCCCC3)nc12 | 3.35% | 2.93% | 4.11% | 2.59% | 2.2%
5 | CCCn1ncc(CN2CCCC(C(=O)c3cccc(OC(C)C)c3)C2)c1C (stereo not given) | -1.75% | 19.6% | -7.55% | -9.73% | -6.86%
6 | Cc1ccc(-c2noc(CNC(N)=O)n2)nn1 | -6.62% | -5.09% | 1.34% | -44.1% | -1.7%
7 | COc1ccc(Br)cc1CN1C(=O)c2cc3ccccc3n2CC1(C)C(=O)NCCCOC(C)C (stereo not given) | 4.26% | 5.28% | 6.69% | 1.26% | 1.81%
8 | CCCn1c(=O)c2ccc(C(=O)NC(C)C)cc2n2c(SCC(=O)Nc3ccc(C)cc3)nnc12 | 2.8% | 6.15% | 8.2% | -6.18% | -2.2%
9 | COCc1ncc(C)n1CCNC(=O)c1ccc(OC)nc1OC | -2.54% | -2.79% | -1.68% | -5.15% | 8.37%
10 | Cc1cc2nn(CC(=O)Nc3ccc4c(c3)OCCO4)c(=O)n2c(Nc2ccccc2C)n1 | -2.18% | 6.33% | -10.5% | -6.05% | -1.74%
11 | CC1(C)CC[C@]2(C(=O)OC3OC(CO)C(O)C(O)C3O)CC[C@]3(C)C(=CCC4[C@@]5(C)CC[C@H](OC6OC(C(=O)O)C(O)C(OC7OC(CO)C(O)C(O)C7O)C6O)C(C)(C)C5CC[C@]43C)C2C1 (stereo not given in full) | 2.99% | 4.4% | 8.24% | -7.5% | 3.83%
12 | COC(=O)c1ncn2c1C(=O)N(Cc1cccc(Br)c1)C(C)(C(=O)NC1CCCC1)C2 (stereo not given) | -0.01% | 3.53% | 4.03% | -1.66% | -0.84%
13 | Cc1cccc(C2c3cccn3-c3sc4c(c3CN2C(=O)Nc2ccccc2)CCCC4)c1 (stereo not given) | -2.67% | -2.38% | -2.17% | -5.46% | -2.4%
14 | Cn1cc(CN2C[C@H](C(=O)Nc3ccc(F)cc3)C[C@@H]2c2cccc(C(F)(F)F)c2)cn1 | -8.66% | -4.96% | -4.02% | -14.4% | -4.3%
15 | CCCOc1ccn2c(C(C)=O)cc(-c3ccccc3S(C)(=O)=O)c2c1 | 5.82% | 5.76% | 6.28% | -11.9% | 2.06%
16 | CNS(=O)(=O)c1ccccc1Nc1nc(Nc2ccc(N3CCN(C)CC3)cc2OC)ncc1Br | -26.8% | 12.8% | -47.4% | -18.4% | -9.42%
17 | CC1(C)CCCC2(C)C1CC(=O)C13CC(CCC12)C(O)(CO)C3 (stereo not given) | -4.45% | -2.63% | -0.544% | -15% | -0.089%
18 | CCCN1C(=O)c2c(C(=O)NCc3cccc(F)c3)ncn2CC1(C)C(=O)NCc1ccc(F)cc1 (stereo not given) | -1.32% | 1.96% | -1.78% | -0.611% | 2.3%
19 | Cc1cnc(CCNS(=O)(=O)c2cccc(F)c2)n1C(C)C | -5.76% | -4.84% | -21.1% | -9.91% | -15.8%
20 | CCCCOc1ccccc1-c1cc2n(n1)CC(C)(C(=O)NC1CCCCCC1)N(CC)C2=O (stereo not given) | 1.45% | 0.734% | 3.01% | 6.02% | 0.37%
21 | COc1ccc(CNc2nc3c(S(=O)(=O)c4ccccc4)nnn3c3ccc(Cl)cc23)cc1 | -9.96% | 3.33% | -2.49% | -0.02% | -4.4%

Row | SMILES | activity change, negative = inhibition [1] | activity change, negative = inhibition [2] | activity change, negative = inhibition [3] | activity change, negative = inhibition [4] | activity change, negative = inhibition [5]
22 | O=c1[nH]c2ccc(S(=O)(=O)NCCCc3ccccc3)cc2[nH]1 | 12.3% | 0% | 10.9% | -1.31% | -1.38%
23 | COc1ccc(C(C)NC(=O)c2noc(-c3ccc(F)cc3)n2)cc1OC (stereo not given) | -9.66% | 1.27% | 0.922% | -4.92% | 0.954%
24 | CNC(=O)N1CCCC1c1nc(C2CN(C(=O)c3cnccn3)C2)no1 (stereo not given) | -3.04% | 2.47% | 2.56% | -4.95% | -12.6%
25 | COc1ccc(F)cc1-c1cccc(C(=O)NCC(=O)NCc2cccs2)c1 | -7.44% | -2.06% | -3.48% | -8.89% | -18.3%
26 | COC(=O)C[C@H]1C(C)(C)[C@H](OC(=O)c2ccccc2)C2CC3=C4CC(=O)O[C@@H](c5ccoc5)[C@]4(C)CCC3[C@@]1(C)C2=O (stereo not given in full) | -1.15% | -0.204% | 5.2% | -16.5% | -8.76%
27 | CN1CCN(CCCN2c3ccccc3Sc3ccc(Cl)cc32)CC1 | -11.9% | 2.17% | -5.74% | -28.1% | 0.698%
28 | CCn1nc(CNC(=O)Cc2cccc(Cl)c2)c2ccccc21 | 2.56% | 1.94% | 0.126% | -1.46% | 2.84%
29 | O=C(c1ccco1)N1CCC(N2CC3(CCCC3)C2c2ccccc2)CC1 (stereo not given) | -2.51% | 0.333% | -10.4% | -9.24% | -2.12%
30 | Cc1[nH]c2ccccc2c1CCNC(=O)c1ccccc1F | -0.669% | 8.15% | 10.5% | -15.8% | 2.77%
31 | Cc1ccccc1OCc1nc(C2CN(C(=O)c3nccc4ccccc34)C2)no1 | -7.2% | -1.29% | -0.61% | -8.52% | 0.388%
32 | COCCn1c(CO)nnc1C1CC(NC(=O)c2cc(C)n3nc(C)cc3n2)C1 (stereo not given) | -1.37% | 5.77% | 0.789% | 0.969% | -6.53%
33 | CCc1cccc(N2C(=O)c3ccccc3CC2(C)C(=O)NCc2ccccc2)c1 (stereo not given) | 3.55% | 0% | 6.39% | -2.29% | 3.5%
34 | COC(=O)CCSCc1ccc(-c2onc(C)c2NC(=O)OC(C)c2ccccc2Cl)cc1 (stereo not given) | -2.2% | -13.8% | 12.5% | -29.6% | -13.5%
35 | CS(=O)(=O)NCC1CCC(Nc2nc3c(s2)CCSc2ccccc2-3)CC1 (stereo not given) | -9.28% | 1.19% | 7.42% | -22.9% | -1.5%
36 | CC1CCC(NC(=O)C2(C)Cn3c(cc4occc43)C(=O)N2Cc2cccc(F)c2)CC1 (stereo not given) | -1.84% | 0.167% | 0.694% | -4.58% | -0.138%
37 | CC(C)/C=C1\NC(=O)C(C(C)C)n2c1nc1c(c2=O)C=CC=CO1 (stereo not given) | -3.29% | -8.18% | 5.92% | -20% | -11.7%
38 | N=c1c[n+](N2CCOCC2)[n-]o1 | 6.57% | 19% | 15.5% | -4.93% | 7.88%
39 | CCCCc1nc2c3ccccc3n(CC(=O)N3CCN(c4ccccc4F)CC3)c(=O)n2n1 | 15.5% | 0% | 12.3% | 7.64% | 7.92%
40 | CCN(CC)CCCN1C(=O)c2cc3occc3n2CC1(C)C(=O)NC1CCC(C)CC1 (stereo not given) | -6.46% | 7.1% | -4.72% | -0.741% | -0.944%
41 | Cc1ccsc1CCNC(=O)CCc1nnc2ccc(NCc3ccccc3)nn12 | -3.4% | 5.29% | -0.931% | -7.07% | 3.12%
42 | Cc1nc(C)c(C(=O)N2CCC(c3nnc(Cn4ccnc4)n3C)CC2)o1 | -3.98% | -6.61% | -3.4% | -2.98% | -5.54%

Row | SMILES | activity change, negative = inhibition [1] | activity change, negative = inhibition [2] | activity change, negative = inhibition [3] | activity change, negative = inhibition [4] | activity change, negative = inhibition [5]
43 | Cc1ccc(CNC(=O)Cn2nc3n(C(C)C)c(=O)c4ccc(C(=O)NC(C)C)cc4n3c2=O)cc1 | 1.59% | 0% | 3.13% | -0.825% | 3.29%
44 | Cc1cc(C)c(S(=O)(=O)NCCc2nc(-c3ccc(F)cc3)n[nH]2)cc1C | -2.06% | 1.89% | -3.95% | -4.09% | -6.3%
45 | O=C(Cn1c(=O)c2ccc(Cl)cc2n2nncc12)Nc1ccc(Oc2ccccc2)cc1 | -1.48% | 4.5% | 1.48% | -4.13% | -3.87%
46 | CCCn1c(=O)c2ccc(Cl)cc2n2c(=O)n(Cc3cc(C)ccc3C)nc12 | 3.71% | 0% | 8.89% | 4.03% | 3.02%
47 | COc1ccc(-c2cnc3[nH]cc(CC(=O)Nc4ccc(C(F)(F)F)cc4)c3c2)cc1 | -10.1% | -12.1% | -7.64% | -19% | -18.9%
48 | CC1CCC(NC(=O)C2(C)Cn3c(cc4sccc43)C(=O)N2Cc2cccnc2)CC1 (stereo not given) | 1.88% | 0% | 3.41% | 4.56% | 0.746%
49 | O=C(NCC1(O)CCCNCC1)c1cccc(-c2ccc(F)cc2)c1 (stereo not given) | -6.73% | -4.54% | -5.74% | -5.46% | -0.636%
50 | CCn1ccnc1CN1CCCC(CO)(Cc2cccc(Cl)c2)C1 (stereo not given) | -3.26% | 2.47% | -21.3% | -6.19% | -1.33%
51 | Cc1ccc(C)c(N2CCN(S(=O)(=O)c3cc4[nH]c(=O)[nH]c4cc3C)CC2)c1 | 2.8% | 0% | -3.71% | -6.84% | -0.637%
52 | COCCNC(=O)c1cc2n(n1)CC(C)(C(=O)NC1CCCC1)N(C)C2=O (stereo not given) | 2.93% | 5.27% | -2.46% | 5.82% | -0.381%
53 | CCCC1CN(Cc2ccc(OC)cc2)[S+](=O)([O-])c2cnccc2O1 (stereo not given) | -7.71% | -8% | -2.84% | -29.7% | -10%
54 | COC(=O)[C@@H]1Cc2ncn(Cc3ccc(OC)cc3)c2CN1S(=O)(=O)c1ccccc1 | -9.47% | -0.387% | 1.05% | -10.6% | -3.94%
55 | CCCCN1C(=O)c2cc3ccccc3n2CC1(C)C(=O)NC1CCCCC1 (stereo not given) | 0.101% | 3.13% | 7.84% | 6.72% | 3.09%
56 | O=C1CCN(C(=O)Cc2ccccc2)CCCOCCN1 | -6.75% | -10.9% | -17.9% | -14.1% | -9.45%
57 | Cc1cccc(NC(=O)Cn2nc3n(C)c(=O)c4ccc(C(=O)NC5CCCC5)cc4n3c2=O)c1 | 0.953% | -0.237% | -0.971% | 0.481% | -5.23%
58 | CNC(=O)c1noc([C@@H]2CC(F)(F)CN2Cc2cccn2C)n1 | -9.25% | -6.16% | -2.49% | -2.41% | -8.81%
59 | CCC[C@@H]1CN(C(=O)c2cc(-c3cccs3)n(C)n2)C[C@H]1N(C)C | -6.97% | -2.84% | -1.89% | -6.23% | -1.73%
60 | COCCCN1C(=O)c2cc3ccccc3n2CC1(C)C(=O)NC1CCCCC1 (stereo not given) | -4.65% | 4.23% | -0.905% | 2.56% | -0.288%
61 | CCCN1C(=O)c2c(C(=O)NCc3cccc(Cl)c3)ncn2CC1(C)C(=O)NC1CCCC1 (stereo not given) | -0.967% | 0% | 4.08% | 2.23% | 1.75%
